# Results as given in the supplement of paper PMC3334620.
# Over roughly 33,000 sequences, “E-score (-0.5 to 0.5)” has its median near -0.01; the highest 2% begin near 0.26. The list shows a part of the results.
# Molecular target: Ste12 (UniProt P13574)
# Assay: PBM E-score (8-mer binding enrichment) (E-score (-0.5 to 0.5)); higher = stronger / more preferred TF binding; most listed sequences are background and not binding sites
# Conditions: protein concentration: 200 nM; construct: GST-DNA-binding domain
# How it was run: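 Each ungapped eight-base word and its reverse complement, pooled, received an E-score from the Universal PBM Analysis Suite. Underlying scans, normalised with masliner, recorded fluorescent anti-GST bound to GST-tagged yeast transcription factors. These were applied at about 100-200 nM to universal all-10-mer Agilent arrays double-stranded by primer extension.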
row,Sequence,PBM E-score
1,CCGTAGTC,-0.122
2,GTCCGATA,-0.0862
3,CACGGACC,-0.162
4,AACCCTAG,-0.108
5,TGTCGCAA,0.191
6,CCCCGGTA,-0.299
7,CACCCCCC,-0.314
8,AGTATCCG,0.0221
9,ATATCCGA,0.0934
10,ACGGAGTC,-0.0702
11,AAAACAGC,0.127
12,AACGTCTC,0.108
13,CTACGCTA,-0.213
14,AATAGTCA,-0.0559
15,AGCAGGCC,-0.109
16,AATCATGG,0.0534
17,ATTTAAGG,0.00576
18,TGAGGGAA,-0.0588
19,ATTAATAA,0.289
20,ATCTCCGG,0.12
21,ATCCTATG,-0.0158
22,AACGAGCA,0.0898
23,GCTCCAAA,-0.0614
24,CTAGTCTC,-0.0743
25,ATAATAGC,-0.0379

row,Sequence,PBM E-score
1,CAACGCAC,-0.0698
2,AATGAGGT,0.0381
3,CCCTACAC,-0.0205
4,CGTCATCA,0.0862
5,TACACGTA,-0.00219
6,CTGTGAGC,-0.0343
7,ATCTCGAA,0.0143
8,ATTTCTGG,0.205
9,GGAGGATA,-0.0611
10,AGACCTAA,-0.0879
11,CAATCCCC,0.0988
12,TCTAGAAA,0.013
13,TAATACGA,0.0708
14,AAGTTAAG,0.00371
15,ATTAGTGG,0.085
16,ACCGTTTA,0.059
17,CTCTATAC,-0.153
18,AGCGCTAA,-0.0312
19,CATGCCGA,-0.0901
20,ATACTCAA,0.127
21,CTCCAACA,0.0733
22,CATACGAC,-0.0204
23,CATTAGGC,-0.175
24,AGTTCAAC,0.12
25,CAACTGTG,-0.123

row,Sequence,PBM E-score
1,AGGGGGCG,-0.196
2,AGTCTACA,-0.127
3,ACGACCTA,-0.0371
4,ACCTTCCA,-0.0033
5,AGGGCTTA,-0.165
6,AGCGTGAG,-0.0745
7,ATGCAGTG,-0.00142
8,AATTCGCT,0.0856
9,CGGACTCA,0.00205
10,TAACAAGA,0.234
11,AATAACCC,0.0955
12,AATGTGGT,0.0761
13,GGACTCCC,-0.237
14,AAATACAG,0.0839
15,GATATGAC,0.0645
16,ATGGACTC,-0.125
17,ATTCAACG,0.0125
18,ATTGTAAA,0.215
19,ACCTATAC,0.0614
20,CTGGGTCA,-0.169
21,TATAGATA,0.00949
22,CATGTGCG,-0.0345
23,AAATAAAT,0.169
24,AGTGGTGG,-0.0364
25,GAGCTGTA,-0.203

row,Sequence,PBM E-score
1,CCCTGTTA,0.279
2,GGCGGCAC,-0.00774
3,CGTGCCAA,-0.0801
4,CGTCACTC,-0.0658
5,TCACGCAA,0.147
6,AGGGGCTA,-0.0204
7,TGCTCGAA,-0.0595
8,CCCTAAAC,-0.0553
9,ATAGAATG,0.0775
10,CGCGAGCA,-0.143
11,GTTTCTGA,0.237
12,AACCAGAT,-0.0314
13,GGGAGTTA,-0.0784
14,CGGACCAA,-0.096
15,CGGGTCTC,0.0262
16,AGACTAAC,0.00023
17,ACCGTAAC,0.0248
18,AAGCCCCC,-0.188
19,CTAAACGC,0.12
20,GCATGGGC,-0.0951
21,TACCACCA,-0.0369
22,ATTTCTGA,0.131
23,CCCTCATA,-0.00219
24,GGCCTGCA,-0.162
25,ATACTTAG,0.13

row,Sequence,PBM E-score
1,AGTTTTCG,0.06
2,GGGGCAAC,-0.169
3,ATTCGCTG,0.0593
4,AACCGCTT,0.0658
5,ATCGGGAG,-0.199
6,GACCGCGC,0.0476
7,CGAGAAAC,0.0131
8,AAGCGGAC,-0.0961
9,ACCGGGGC,-0.00737
10,CACGGTGG,0.0859
11,GCGAAGTA,-0.137
12,ACGGTGAC,-0.0201
13,ATCGACAC,-0.00445
14,CTTCACAA,-0.0638
15,ACAATGAG,-0.00083
16,CCACGCTC,-0.153
17,GATAGTAC,-0.00566
18,ATCTTTCG,0.14
19,AACAGTGG,0.0219
20,CCTACCCC,-0.0986
21,ACATAAAA,0.17
22,AAATCAGA,0.122
23,CAACCTGG,-0.107
24,CCCCGGAA,-0.11
25,CTGCCGAC,-0.00908

row,Sequence,PBM E-score
1,ACTTGTCT,-0.0183
2,AGACGGGA,-0.012
3,ATTCTCCA,0.145
4,CCCCCACA,-0.198
5,CCACGCCC,-0.12
6,ACGTCGAT,0.0744
7,ACTAACTC,-0.114
8,CTGATAAG,0.0484
9,CAATTAGC,0.0432
10,CCGTCATA,0.157
11,ACACTTTA,0.0929
12,ACCAATCA,0.0653
13,GTCTTTCA,0.00039
14,ACGTTTGC,-0.135
15,ACAGACAT,-0.0493
16,TACCATGA,-0.0381
17,AGGGCCCG,0.0968
18,ATCGGACC,-0.158
19,GACGCCAC,-0.13
20,AAGGAAGC,0.0847
21,TAGAACCA,-0.12
22,GTAGCAGA,0.156
23,CCCCCAAC,-0.0757
24,ACCCCGCG,-0.0209
25,CCTGTGGA,-0.198

row,Sequence,PBM E-score
1,GCAAGATA,0.0328
2,ACGCTAAC,-0.0227
3,GCGACCGC,-0.103
4,ATGCCGGC,0.0346
5,GTGCTGGA,-0.136
6,CTAGATGA,-0.00199
7,CAGGCACA,-0.26
8,AGAGGTGC,-0.253
9,GAGGTTTA,0.014
10,GTAATAAC,0.0516
11,GCTGGTCA,-0.0653
12,ATATGCAG,-0.108
13,AACTGTCT,-0.0653
14,CCGTTTAG,-0.0272
15,ATGGTGGA,-0.0486
16,CCTCAAAG,-0.211
17,AGCAGTGA,-0.0211
18,AGGGTCGA,0.0187
19,ACCTCAGT,0.0429
20,AGTGAGTC,-0.194
21,GCCCTTCC,-0.0896
22,CAATTTGC,0.00867
